Data reported in PubChem BioAssay AID493208 (National Center for Advancing Translational Sciences (NCATS), 2011).
Hit rate of the full screen: of about 44,000 compounds, about 340 (0.77%) were called active. Inconclusive results (about 5%) are left out. Calls follow the shape of the dose curve; as a rule, active = well fitted inhibition curve with a large enough effect; inconclusive = small, poorly fitted or top-dose-only effect; inactive = flat fitted curve, though single readings scatter. The list shows a part of the results.

Test: Acumen qHTS Assay for Inhibitors of the mTORC1 Signaling Pathway in MEF (Tsc2-/-, p53-/-) Cells: Sytravon; also: nearly all actives have a fitted effect of over 50% in size;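 as to activity change, negative = inhibition: plate controls were DMSO for no effect and rapamycin for full effect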
Conditions: phospho-rpS6 immunofluorescence/PI, 24 h; series mostly up to 38.3 µM; activity change, negative = inhibition: at the top concentration
Procedure, shortened: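 Immunofluorescence of rpS6 phosphorylation in Tsc2-/-, p53-/- MEFs after 24 h compound exposure, normalized to propidium iodide signal. Activity is expressed as % positive cells, thresholded with 7.5 nM rapamycin.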
Potency is read from the fitted curve at half-maximal effect.

| Structure (SMILES) | activity change, negative = inhibition | Potency |
| --- | --- | --- |
| Cc1nc2c(-c3ccccc3)c(C)nn2c(C)c1CCC(=O)N1CCN(c2ccc(F)cc2)CC1 | inactive: -6.27% | – |
| Cc1cccc(N2CCN(CCCNc3ncnc4onc(-c5ccc(Cl)cc5)c34)CC2C)c1 (stereo not drawn) | inactive: 5.43% | – |
| CSc1ccc(CCNC(=O)c2ccc(-c3nc(COc4ccccc4)c(C)o3)cc2)cc1 | inactive: -8.3% | – |
| COc1ccc(CCNC(=O)CCn2c(=O)c3ccccc3n(Cc3cc(C)ccc3C)c2=O)cc1OC | inactive: -9.25% | – |
| Cc1cccc(NC(=O)c2ccc3snnc3c2)c1 | inactive: -0.272% | – |
| Cc1ccc2nc(-c3ccc(Cl)c(NC(=O)COc4cccc(C)c4C)c3)oc2c1 | inactive: 3.86% | – |
| Cc1cc2c(cc1NS(=O)(=O)c1ccc(F)cc1)n(C)c(=O)c(=O)n2C | inactive: -13.5% | – |
| CCCc1cc(=O)[nH]c2nnc(SC(C)CC)n12 (stereo not drawn) | inactive: -0.333% | – |
| CCOC(=O)c1sc(NC(=O)/C=C/c2ccc(C(C)C)cc2)c(C(=O)OCC)c1C | inactive: 7.95% | – |
| CCc1cccc(C)c1NS(=O)(=O)c1cc2[nH]c(=O)c(=O)[nH]c2cc1C | inactive: -1.2% | – |
| Cc1ccc2nc(N3CCN(c4cccc(C(F)(F)F)c4)CC3)c3nnnn3c2c1 | inactive: -2.32% | – |
| CCN(CC)c1ccc(NC(=O)CCS(=O)(=O)c2cc3c(cc2Cl)NC(=O)CO3)c(C)c1 | inactive: -0.505% | – |
| CCc1nnc(SCC(=O)Nc2ccccc2Cl)nc1CC | inactive: 0.349% | – |
| CC(C)COc1ccc(C(=O)NCC2(N3CCN(C)CC3)CCCCC2)cc1 | – | active: 16.5 µM |
| COCCNC(=O)Cn1nc(C)c2c(C)n(-c3ccc(C)cc3)nc2c1=O | inactive: 0% | – |
| CCc1ccc2ncc3c(-c4ccccc4)nn(-c4ccccc4)c3c2c1 | inactive: -3.27% | – |
| CCc1ccc(NCc2cc3cc4c(cc3n(CC(=O)Nc3cccc(OC)c3)c2=O)OCO4)cc1 | inactive: -12.5% | – |
| Cc1cc(NS(=O)(=O)c2ccc(NC(=O)c3ccccc3C)cc2)nc(C)n1 | inactive: -3.19% | – |
| COc1cccc(NC(=O)CSc2nnc3scc(-c4ccc(Cl)cc4)n23)c1 | inactive: 0.457% | – |
| COc1ccc(N(C(=O)c2ccc(OC)c(OC)c2)S(=O)(=O)c2ccc(Cl)cc2)cc1 | inactive: -5.33% | – |
| Cc1ccc(C)c(NC(=O)CC2NCCNC2=O)c1 (stereo not drawn) | inactive: 0.303% | – |
| N#Cc1ccccc1Cn1c(=O)n(CCCC(=O)NCc2ccc3c(c2)OCO3)c(=O)c2sccc21 | inactive: 2.83% | – |
| Cc1ccc(NC(=O)C2CCCN(c3nnc(-n4c(C)ccc4C)s3)C2)c(C)c1 (stereo not drawn) | inactive: -9.62% | – |
| Cc1ccn2c(=O)cc(COc3ccc(NC(=O)COc4ccc(Cl)cc4)cc3)nc2c1 | inactive: -0.145% | – |

| Structure (SMILES) | activity change, negative = inhibition | Potency |
| --- | --- | --- |
| CCCN(CCC)C(=O)Cn1c(=O)n(-c2cccc(OC)c2)c(=O)c2c3c(sc21)CCCC3 | inactive: -12% | – |
| CCCC(C(=O)NCc1cccc(Cl)c1)N1Cc2ccccc2C1=O (stereo not drawn) | inactive: 1.77% | – |
| Cc1csc2nc(COC(=O)c3cccc(NC(=O)COc4ccc(Cl)cc4)c3)cc(=O)n12 | inactive: 5.72% | – |
| O=C(CCCCn1c(=O)c2ccccc2n(Cc2ccccc2Cl)c1=O)NCCc1ccccc1 | inactive: 0.748% | – |
| O=C(CCSCc1cnn(-c2ccccc2)c1-n1cccc1)NCc1ccc(Cl)cc1 | inactive: -12.6% | – |
| Cc1ccc(-n2c(=O)c3c(cnn3C)n(CC(=O)Nc3cc(C)ccc3C)c2=O)cc1 | inactive: 0.358% | – |
| Cc1ccc(NC(=O)Cn2cc(C(=O)c3cccs3)c3ccccc32)cc1C | inactive: -5.05% | – |
| Cc1ccc(C(=O)c2cn(Cc3cccc(F)c3)c3nc(C)ccc3c2=O)cc1 | inactive: -26% | – |
| COc1ccc(C(=O)NCc2ccc3c(c2)CCN3C(=O)c2cccc(C)c2)cc1OC | inactive: -17.3% | – |
| O=C(CCn1cccn1)Nc1cccc(C(F)(F)F)c1 | inactive: -7.96% | – |
| Cc1oc2ncnc(N3CCOCC3)c2c1C(=O)NCc1ccccc1 | inactive: 4.13% | – |
| Cc1nc2sccn2c(=O)c1S(=O)(=O)N1CCN(c2ccc(F)cc2)CC1 | inactive: -3.5% | – |
| CCCN(Cc1cccs1)C(=O)Nc1ccc(Br)c(C)c1 | inactive: -4.66% | – |
| CCCCOc1ccccc1NC(=O)Cn1c(-c2cncs2)nc2ccccc21 | inactive: 4.88% | – |
| COc1ccc(OC)c(-n2cnc3cc(C(=O)NC4CCCC4)ccc32)c1 | inactive: 0.0472% | – |
| O=C(Nc1nnc(S(=O)(=O)N2CCCC2)s1)c1ccc(F)cc1 | inactive: -4.15% | – |
| O=C(NC1CC(=O)N(c2ccccc2)C1)c1cc2ccccc2o1 (stereo not drawn) | inactive: -2.44% | – |
| Cc1oc(-c2ccccc2)nc1CNS(=O)(=O)c1ccc(Cl)cc1 | inactive: 13.5% | – |
| CN1CCN(Cc2c(O)ccc3cc(-c4ccccc4)c(=O)oc23)CC1 | inactive: 1.8% | – |
| CCOc1ccc(-c2cc(C(=O)NCc3ccc(OC)cc3)c3c(-c4ccc(F)cc4)[nH]nc3n2)cc1 | inactive: 0.0903% | – |
| CCCOc1ccc(NC(=O)CC2C(=O)N(c3cccc(C)c3)C(=O)N2CCc2ccncc2)cc1 (stereo not drawn) | inactive: -2.27% | – |
| COc1ccc(Nc2nc3c(S(=O)(=O)c4ccccc4)nnn3c3ccc(Cl)cc23)cc1OC | inactive: -8.61% | – |
| CCOC(=O)c1cccc(NC(=O)c2cc3c(=O)n(Cc4cccnc4)ccc3nc2C)c1 | inactive: 0% | – |
| Cc1cccc(-c2nc(N3CCN(c4ccc(F)cc4)CC3)c3ccccc3n2)c1 | inactive: -0.83% | – |
